{
  "source": "PubChem BioAssay AID624417",
  "about": "(National Center for Advancing Translational Sciences (NCATS), 2012)",
  "note": "Among all 410,000 compounds or so, about 6,400 (1.6%) were called active. Inconclusive results, whose numbers are uncertain, are shown with a selection of clear calls. Calls come from the whole dose curve; as a rule, active = well fitted inhibition curve with a large enough effect; inconclusive = small, poorly fitted or top-dose-only effect; inactive = no such curve, though single readings can be large or run the other way. Potencies of inconclusive entries are left out as doubtful fits. % is set by controls: 0 for no effect and ±100 for the full control effect; potency is the fitted concentration of half-maximal effect; tags give direction and shape of the fitted curve.",
  "data": [
    {"target": "Glucagon-like peptide 1 receptor (Homo sapiens) (UniProt P43220)", "sequence (P43220 whole entry, looked up)": "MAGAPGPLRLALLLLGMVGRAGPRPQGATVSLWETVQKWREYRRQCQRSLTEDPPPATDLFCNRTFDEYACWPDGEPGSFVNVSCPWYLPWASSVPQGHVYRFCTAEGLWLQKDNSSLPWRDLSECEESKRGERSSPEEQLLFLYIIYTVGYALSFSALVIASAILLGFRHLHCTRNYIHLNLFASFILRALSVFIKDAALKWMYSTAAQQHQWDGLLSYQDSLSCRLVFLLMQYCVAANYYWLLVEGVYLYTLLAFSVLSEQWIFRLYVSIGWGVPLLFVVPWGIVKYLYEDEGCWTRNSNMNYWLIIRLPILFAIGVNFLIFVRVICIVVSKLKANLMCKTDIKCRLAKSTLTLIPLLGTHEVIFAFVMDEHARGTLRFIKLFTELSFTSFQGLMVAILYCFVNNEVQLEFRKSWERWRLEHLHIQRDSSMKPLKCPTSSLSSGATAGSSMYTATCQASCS", "assay": "qHTS of GLP-1 Receptor Inverse Agonists (Inhibition Mode); note: nearly all actives have a fitted effect of over 55% in size", "settings": "HEK293 GLP-1R CRE-luciferase, luminescence, 24 h, GLP-1R form is constitutively active; activity change, negative = inhibition: at 38.3 µM (top of the series) unless noted", "procedure,_shortened": "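Constitutively active GLP-1R drives a cAMP-responsive luciferase in stably transfected HEK293 cells; test compounds are added after overnight (12 h) attachment and left 24 hr, and signal loss in luminescence marks inhibition.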", "values": [
      {"smiles": "COCCNc1nc2c(c(=O)n(Cc3cccc(Br)c3)c(=O)n2C)n1C", "Potency": "inconclusive [inhibitor, single point]"},
      {"smiles": "CN1CCC(=C(c2ccc(Cl)cc2)c2ccccn2)CC1", "Potency": "inconclusive [inhibitor, single point]"},
      {"smiles": "COc1cccc(/C=N/Nc2ccnc(=O)[nH]2)c1O", "Potency": "inconclusive [inhibitor, full curve, poor fit]"},
      {"smiles": "O=C(CSC1=NS(=O)(=O)c2ccccc2N1)Nc1ccc(F)cc1", "Potency": "inconclusive [inhibitor, partial curve, poor fit]"},
      {"smiles": "COc1ccccc1Cc1c(-c2ccccc2)nc2ccc(Br)cn12", "Potency": "inconclusive [inhibitor, single point]"},
      {"smiles": "O=C(CN1CCN(Cc2ccc(Cl)cc2)CC1)N/N=C/c1ccccc1F", "Potency": "inconclusive [inhibitor, partial curve, poor fit]"},
      {"smiles": "CC(C)c1ccc(Nc2ncnc3onc(-c4ccc(F)cc4)c23)cc1", "Potency": "inconclusive [inhibitor, single point]"},
      {"smiles": "Cc1ccc(-c2cn(-c3ccc(SC(F)F)cc3)c3[n+]2CCC3)cc1", "Potency": "inconclusive [inhibitor, partial curve, poor fit]"},
      {"smiles": "Cc1noc(C)c1CSCC(=O)N(C)CC(=O)Nc1ccc(Cl)c(C(F)(F)F)c1", "Potency": "inconclusive [inhibitor, single point]"},
      {"smiles": "COc1ccc(OC)c2sc(N3CCN(C(=O)CCS(=O)(=O)c4ccc(F)cc4)CC3)nc12", "activity change, negative = inhibition": "inactive: 44.8%"},
      {"smiles": "CN(CC(=O)Nc1cccc(F)c1)CC(=O)Nc1ccccc1-c1ccccc1", "Potency": "inconclusive [inhibitor, partial curve, poor fit]"},
      {"smiles": "COc1ccccc1/C=C/C(=O)OCC(=O)Nc1ccc(Cl)cn1", "Potency": "inconclusive [inhibitor, single point]"},
      {"smiles": "Cc1noc(C)c1C(=O)Nc1nc2ccc(S(C)(=O)=O)cc2s1", "activity change, negative = inhibition": "inactive: 8.53%"},
      {"smiles": "C[n+]1c2n(c3ccccc31)N=C(c1cc(C(C)(C)C)c(O)c(C(C)(C)C)c1)CS2", "Potency": "inconclusive [inhibitor, partial curve, poor fit]"},
      {"smiles": "Cc1ccc(C(=O)NC(=S)c2c(C)cc3ccccn23)cc1", "Potency": "inconclusive [inhibitor, partial curve]"},
      {"smiles": "O=C(C[C@H]1C[C@H](C(=O)N2CCOCC2)[C@@]2(CCC3CCCC3)c3[nH]c4cc(-c5ccco5)ccc4c3CCN2C1=O)NCC12CC3CC(CC(C3)C1)C2", "Potency": "inconclusive [inhibitor, single point]"}
    ]}
  ]
}
